Reference: article PMC2783589 (Biochemistry, 2009)

Tests used:
[1] = molecular target: CpaD (CpaD_Ao) (Aspergillus oryzae, UniProt F5HN73); details: read-out: Kinetic profile / Km; DMAPP, 50 mM Tris-HCl pH 7.5, 30 °C
[2] = system: CC(=O)C1C(=O)N[C@@H](Cc2c[nH]c3ccccc23)C1=O; assay: purified protein; details: 250 μM DMAPP, 50 mM Tris-HCl pH 7.5, 30 °C, no divalent metal
[3] = system: CC(=O)C1C(=O)N[C@@H](Cc2ccc(O)cc2)C1=O; assay: purified protein; details: DMAPP, 50 mM Tris-HCl pH 7.5, 30 °C, O-dimethylallylation
[4] = system: CC(=O)C1C(=O)N[C@H](Cc2c[nH]c3ccccc23)C1=O; assay: purified protein; details: 250 μM DMAPP, 50 mM Tris-HCl pH 7.5, 30 °C, no divalent metal
[5] = system: O=C1CNC(=O)[C@H](Cc2c[nH]c3ccccc23)N1; assay: purified protein; details: DMAPP, 50 mM Tris-HCl pH 7.5, 30 °C
[6] = system: O=C1N[C@@H](Cc2c[nH]c3ccccc23)C(=O)N[C@H]1Cc1ccccc1; assay: purified protein; details: DMAPP, 50 mM Tris-HCl pH 7.5, 30 °C
[7] = system: O=C1N[C@@H](Cc2c[nH]c3ccccc23)C(=O)N[C@H]1Cc1ccc(O)cc1; assay: purified protein; details: DMAPP, 50 mM Tris-HCl pH 7.5, 30 °C
[8] = system: O=C1N[C@@H](Cc2c[nH]c3ccccc23)C(=O)N[C@H]1Cc1c[nH]c2ccccc12; assay: purified protein; details: DMAPP, 50 mM Tris-HCl pH 7.5, 30 °C

Chain of CpaD (CpaD_Ao) (F5HN73 whole entry, looked up): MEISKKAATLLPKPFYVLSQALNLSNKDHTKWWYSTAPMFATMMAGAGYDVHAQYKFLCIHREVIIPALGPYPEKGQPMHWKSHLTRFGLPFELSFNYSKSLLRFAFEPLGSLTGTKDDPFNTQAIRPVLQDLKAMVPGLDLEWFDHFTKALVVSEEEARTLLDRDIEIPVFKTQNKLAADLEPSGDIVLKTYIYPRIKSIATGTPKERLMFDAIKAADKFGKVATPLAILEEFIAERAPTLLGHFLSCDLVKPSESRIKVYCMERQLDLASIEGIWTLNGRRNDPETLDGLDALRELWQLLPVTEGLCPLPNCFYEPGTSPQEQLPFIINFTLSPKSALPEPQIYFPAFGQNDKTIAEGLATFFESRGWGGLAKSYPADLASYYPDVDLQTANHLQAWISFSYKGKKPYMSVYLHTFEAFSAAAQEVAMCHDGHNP

## O=C1N[C@@H](Cc2c[nH]c3ccccc23)C(=O)N2CCC[C@@H]12 [compound 8, DKP L-Trp-L-Pro 8]
[1]
  Km: 756 ± 52 µM

## CpaD (CpaD_Ao) (Aspergillus oryzae)
[2]
  Km: 109 ± 16 µM
  kcat: 0.883 ± 0.2 s⁻¹
  kcat/Km: 8100 M⁻¹ s⁻¹
[3]
  Km: 368 µM
  kcat: 0.00867 s⁻¹
[4]
  Km: 382 ± 29 µM
  kcat: 0.137 ± 0.0317 s⁻¹
  kcat/Km: 350 M⁻¹ s⁻¹
[5]
  Km: 712 ± 38 µM
  kcat: 0.003 ± 0.000667 s⁻¹
  kcat/Km: 4.23 M⁻¹ s⁻¹
[6]
  Km: 546 ± 42 µM
  kcat: 0.00483 ± 0.001 s⁻¹
  kcat/Km: 8.85 M⁻¹ s⁻¹
[7]
  Km: 526 ± 34 µM
  kcat: 0.00533 ± 0.00133 s⁻¹
  kcat/Km: 10.1 M⁻¹ s⁻¹
[8]
  Km: 638 ± 46 µM
  kcat: 0.0035 ± 0.000833 s⁻¹
  kcat/Km: 5.48 M⁻¹ s⁻¹
